From the BET-seq Pho4 binding data (Le et al. 2018)
The other results are listed elsewhere or left out. The energies were worked out here from pooled read counts, against the library average; single values are noisy.

Each sequence was assayed against T1, Pho4 (S. cerevisiae) (UniProt P07270) (assay: relative binding free energy (BET-seq); higher = weaker binding). Conditions: reference: library average.
T1 sequence: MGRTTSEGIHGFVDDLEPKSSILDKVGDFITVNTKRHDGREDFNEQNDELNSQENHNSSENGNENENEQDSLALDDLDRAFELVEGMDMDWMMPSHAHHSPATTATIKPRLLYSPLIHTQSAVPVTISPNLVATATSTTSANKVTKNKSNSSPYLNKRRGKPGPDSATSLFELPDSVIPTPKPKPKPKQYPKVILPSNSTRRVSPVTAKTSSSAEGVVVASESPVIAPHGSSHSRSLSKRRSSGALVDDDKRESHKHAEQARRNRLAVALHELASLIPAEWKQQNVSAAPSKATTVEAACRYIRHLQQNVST
With AAGTGCACGTGCGTTA the “relative binding free energy” value was -0.13 kcal/mol.
GCACGCACGTGTGGTG was tested, and the “relative binding free energy” value was -0.02 kcal/mol.
For TATGTCACGTGAGCAT, the “relative binding free energy” value was 0.3 kcal/mol.
TTACTCACGTGGAGTG was tested, and the “relative binding free energy” value was 0.16 kcal/mol.
For CGGACCACGTGGGTTT, the “relative binding free energy” value was -0.01 kcal/mol.
GGATTCACGTGGGATA was tested, and the “relative binding free energy” value was 0.03 kcal/mol.
In the case of GGGAACACGTGTGTGC, the “relative binding free energy” value is reported as 0.05 kcal/mol.
With ATGAACACGTGTGGTA the “relative binding free energy” value was 0.15 kcal/mol.
With TTAAGCACGTGGAGGA the “relative binding free energy” value was -0.12 kcal/mol.
In the case of GTGGTCACGTGGGGAT, the “relative binding free energy” value is reported as 0.02 kcal/mol.
In the case of GCCAGCACGTGTGGGT, the “relative binding free energy” value is reported as 0.06 kcal/mol.
In the case of TCTAACACGTGGGGTT, the “relative binding free energy” value is reported as -0.21 kcal/mol.
With CTTCTCACGTGTGTGT the “relative binding free energy” value was 0.04 kcal/mol.
With CTTTTCACGTGGTAAG the “relative binding free energy” value was 0.12 kcal/mol.
AAGGTCACGTGACGTA was tested, and the “relative binding free energy” value was 0.22 kcal/mol.
For TAATTCACGTGACTGG, the “relative binding free energy” value was 0.38 kcal/mol.
For ATATTCACGTGAAGTG, the “relative binding free energy” value was 0.31 kcal/mol.
In the case of AATATCACGTGTTTTG, the “relative binding free energy” value is reported as 0.02 kcal/mol.
For GTGGGCACGTGTCGAA, the “relative binding free energy” value was -0.02 kcal/mol.
For ATGGTCACGTGTTCTG, the “relative binding free energy” value was 0.03 kcal/mol.
ATGTGCACGTGAAAAG was tested, and the “relative binding free energy” value was 0.12 kcal/mol.
In the case of GTCGTCACGTGAGGAG, the “relative binding free energy” value is reported as 0.23 kcal/mol.
With ATCTGCACGTGTTTGG the “relative binding free energy” value was -0.14 kcal/mol.
In the case of GGGGGCACGTGGTCAG, the “relative binding free energy” value is reported as -0.15 kcal/mol.
CTGTTCACGTGTTATA was tested, and the “relative binding free energy” value was 0.21 kcal/mol.
With TGTAACACGTGTTCGT the “relative binding free energy” value was -0.03 kcal/mol.
ATTAGCACGTGGGATG was tested, and the “relative binding free energy” value was -0.18 kcal/mol.
With GGGTGCACGTGTGTGA the “relative binding free energy” value was 0.08 kcal/mol.
GTTGCCACGTGGATTT was tested, and the “relative binding free energy” value was -0.07 kcal/mol.
With TTGGGCACGTGGGCAT the “relative binding free energy” value was -0.11 kcal/mol.
With GTGGCCACGTGCGGTT the “relative binding free energy” value was -0.04 kcal/mol.
GAATGCACGTGAATGT was tested, and the “relative binding free energy” value was 0.24 kcal/mol.
For GTGCGCACGTGGTTTG, the “relative binding free energy” value was -0.16 kcal/mol.
For GAGTGCACGTGATAGT, the “relative binding free energy” value was 0.19 kcal/mol.
For TAACACACGTGTTTTG, the “relative binding free energy” value was 0.04 kcal/mol.
For ATGTTCACGTGGAATA, the “relative binding free energy” value was 0.48 kcal/mol.
For GATGTCACGTGTATGG, the “relative binding free energy” value was 0.28 kcal/mol.
For AGGGTCACGTGCGTAG, the “relative binding free energy” value was 0.04 kcal/mol.
For GTTAGCACGTGTTCTA, the “relative binding free energy” value was 0.01 kcal/mol.
CGTGTCACGTGTTTAT was tested, and the “relative binding free energy” value was 0.24 kcal/mol.
With GTGTTCACGTGAGACT the “relative binding free energy” value was 0.38 kcal/mol.
TTTCTCACGTGAGTGT was tested, and the “relative binding free energy” value was 0.39 kcal/mol.
For TGAGGCACGTGCGCGG, the “relative binding free energy” value was -0.24 kcal/mol.
TGATTCACGTGGCTGT was tested, and the “relative binding free energy” value was 0.28 kcal/mol.
In the case of TTGGGCACGTGTTTTT, the “relative binding free energy” value is reported as 0.03 kcal/mol.
In the case of CGTATCACGTGCGTTG, the “relative binding free energy” value is reported as 0.16 kcal/mol.
For GTGGTCACGTGTGAGC, the “relative binding free energy” value was 0.11 kcal/mol.
TGATACACGTGGTGAG was tested, and the “relative binding free energy” value was -0.11 kcal/mol.
For AAATGCACGTGTATGA, the “relative binding free energy” value was 0 kcal/mol.
In the case of AGTGTCACGTGTTGTA, the “relative binding free energy” value is reported as 0.03 kcal/mol.
In the case of TTGTCCACGTGTCTTG, the “relative binding free energy” value is reported as 0.05 kcal/mol.
For CGAGTCACGTGGGATT, the “relative binding free energy” value was 0.21 kcal/mol.
In the case of TGGAACACGTGGTGAT, the “relative binding free energy” value is reported as -0.04 kcal/mol.
With TTGTGCACGTGTTGGT the “relative binding free energy” value was 0.1 kcal/mol.
In the case of AGCGGCACGTGGGCGC, the “relative binding free energy” value is reported as -0.25 kcal/mol.
With GTCGTCACGTGAAAGT the “relative binding free energy” value was 0.43 kcal/mol.
In the case of TTTTACACGTGGAACG, the “relative binding free energy” value is reported as 0.42 kcal/mol.
For AGCGGCACGTGCCGGG, the “relative binding free energy” value was -0.3 kcal/mol.
In the case of TTGCGCACGTGAAGGT, the “relative binding free energy” value is reported as 0.18 kcal/mol.
For TATATCACGTGTTCTG, the “relative binding free energy” value was 0.03 kcal/mol.
For GTAATCACGTGAGTTG, the “relative binding free energy” value was 0.35 kcal/mol.
With AAAAGCACGTGGTTGT the “relative binding free energy” value was -0.14 kcal/mol.
In the case of GGGTGCACGTGATAGA, the “relative binding free energy” value is reported as 0.1 kcal/mol.
For GGTTTCACGTGGCGTT, the “relative binding free energy” value was 0.41 kcal/mol.
For ACTGTCACGTGGTAGG, the “relative binding free energy” value was 0.04 kcal/mol.
In the case of GGTTTCACGTGAGCGG, the “relative binding free energy” value is reported as 0.34 kcal/mol.
TTATGCACGTGTCGGG was tested, and the “relative binding free energy” value was 0.07 kcal/mol.
CGTAGCACGTGGTAGT was tested, and the “relative binding free energy” value was -0.18 kcal/mol.
In the case of GGGAGCACGTGTGAGA, the “relative binding free energy” value is reported as 0.03 kcal/mol.
In the case of ATTTGCACGTGAAAGG, the “relative binding free energy” value is reported as 0.16 kcal/mol.
TGTTGCACGTGTTTCC was tested, and the “relative binding free energy” value was 0.05 kcal/mol.
AAAGTCACGTGGTTGG was tested, and the “relative binding free energy” value was 0.06 kcal/mol.
In the case of AGTGACACGTGTAAGT, the “relative binding free energy” value is reported as 0.14 kcal/mol.
TTGGTCACGTGCTGAG was tested, and the “relative binding free energy” value was 0.13 kcal/mol.
AGGGCCACGTGGAGTG was tested, and the “relative binding free energy” value was -0.25 kcal/mol.
In the case of GGAGACACGTGTTTGA, the “relative binding free energy” value is reported as 0.07 kcal/mol.
TAATACACGTGTGGAG was tested, and the “relative binding free energy” value was 0.1 kcal/mol.
In the case of GTGAGCACGTGGTAGT, the “relative binding free energy” value is reported as -0.11 kcal/mol.
In the case of TGTACCACGTGTGTTT, the “relative binding free energy” value is reported as -0.03 kcal/mol.
ACAGGCACGTGTGAGT was tested, and the “relative binding free energy” value was 0.06 kcal/mol.
With TGGGCCACGTGCGTGA the “relative binding free energy” value was -0.17 kcal/mol.
For TGTGGCACGTGGCTCG, the “relative binding free energy” value was -0.04 kcal/mol.
For GTTGGCACGTGTCGAT, the “relative binding free energy” value was 0.08 kcal/mol.
In the case of GGTCGCACGTGATGGA, the “relative binding free energy” value is reported as 0.1 kcal/mol.
With GTATGCACGTGATCGT the “relative binding free energy” value was -0.12 kcal/mol.
For GCCTGCACGTGTCGGG, the “relative binding free energy” value was 0.19 kcal/mol.
In the case of GTAGTCACGTGTGATG, the “relative binding free energy” value is reported as 0.12 kcal/mol.
With GGCTTCACGTGTTTCG the “relative binding free energy” value was 0.21 kcal/mol.
In the case of TGATGCACGTGAGTAA, the “relative binding free energy” value is reported as 0.04 kcal/mol.
CGAGTCACGTGGGATA was tested, and the “relative binding free energy” value was 0.07 kcal/mol.
In the case of CTGGTCACGTGGAGGA, the “relative binding free energy” value is reported as 0.24 kcal/mol.
ATCTACACGTGTGTTT was tested, and the “relative binding free energy” value was 0.18 kcal/mol.
With CCGGTCACGTGTGGGT the “relative binding free energy” value was 0.24 kcal/mol.
CGGTTCACGTGGTGCG was tested, and the “relative binding free energy” value was 0.1 kcal/mol.
With TTTTTCACGTGGTTTG the “relative binding free energy” value was 0.29 kcal/mol.
In the case of TCTGGCACGTGTAATT, the “relative binding free energy” value is reported as 0.01 kcal/mol.
For TTGGTCACGTGCGGAG, the “relative binding free energy” value was 0.15 kcal/mol.
With AGAGGCACGTGGGGCA the “relative binding free energy” value was -0.2 kcal/mol.
With AATTTCACGTGCTGGG the “relative binding free energy” value was 0.22 kcal/mol.
For GAACGCACGTGGAGGT, the “relative binding free energy” value was 0 kcal/mol.
In the case of ATGTTCACGTGGATCG, the “relative binding free energy” value is reported as 0.26 kcal/mol.
In the case of TGGGGCACGTGGGCAG, the “relative binding free energy” value is reported as -0.19 kcal/mol.
AGTGTCACGTGTACAG was tested, and the “relative binding free energy” value was -0.04 kcal/mol.
CATTACACGTGGTGTA was tested, and the “relative binding free energy” value was -0.03 kcal/mol.
With GATATCACGTGGCAGT the “relative binding free energy” value was 0.22 kcal/mol.
In the case of AGATTCACGTGGAATT, the “relative binding free energy” value is reported as 0.24 kcal/mol.
For GGGAGCACGTGGAGTT, the “relative binding free energy” value was 0.01 kcal/mol.
GATCTCACGTGTGTGT was tested, and the “relative binding free energy” value was 0.13 kcal/mol.
With TCCTTCACGTGGGGGT the “relative binding free energy” value was 0.08 kcal/mol.
For GGTAGCACGTGTTACT, the “relative binding free energy” value was 0.05 kcal/mol.
With GATTGCACGTGGGTAT the “relative binding free energy” value was 0.02 kcal/mol.
With TAGCGCACGTGGTGTA the “relative binding free energy” value was -0.24 kcal/mol.
For GTGGACACGTGGCCGT, the “relative binding free energy” value was -0.02 kcal/mol.
For GTGACCACGTGTGTGG, the “relative binding free energy” value was -0.16 kcal/mol.
In the case of AGGGCCACGTGGCATG, the “relative binding free energy” value is reported as -0.15 kcal/mol.
